# Test results as given in the supplement of paper PMC3334620.
# Over roughly 33,000 sequences, “E-score (-0.5 to 0.5)” has its median near -0.035; the highest 2% begin near 0.34. This is one part of the list.
# Molecular target: T1, Mot3 (UniProt P54785)
# T1 sequence: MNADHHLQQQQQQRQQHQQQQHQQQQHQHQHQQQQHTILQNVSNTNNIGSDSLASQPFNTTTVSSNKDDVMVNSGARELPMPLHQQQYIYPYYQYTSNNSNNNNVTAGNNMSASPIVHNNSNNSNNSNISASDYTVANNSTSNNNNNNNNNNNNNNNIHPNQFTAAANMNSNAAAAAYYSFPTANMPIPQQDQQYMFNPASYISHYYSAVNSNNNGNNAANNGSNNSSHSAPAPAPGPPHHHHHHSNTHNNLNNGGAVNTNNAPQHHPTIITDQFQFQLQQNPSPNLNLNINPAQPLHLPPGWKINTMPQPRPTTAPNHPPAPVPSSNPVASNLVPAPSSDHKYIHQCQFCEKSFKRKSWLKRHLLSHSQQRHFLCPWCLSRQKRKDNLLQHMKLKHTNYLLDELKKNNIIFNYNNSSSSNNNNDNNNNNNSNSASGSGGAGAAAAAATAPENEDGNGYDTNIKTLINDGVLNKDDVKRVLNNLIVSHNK
# Assay: PBM E-score (8-mer binding enrichment) (E-score (-0.5 to 0.5)); higher = stronger / more preferred TF binding; most listed sequences are background and not binding sites
# Conditions: protein concentration: 200 nM; construct: GST-full length
# In short: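 For each ungapped eight-base word taken together with its reverse complement, the Universal PBM Analysis Suite assigned an E-score. Binding data came from GST-tagged yeast transcription factors, applied at about 100-200 nM, on universal all-10-mer Agilent arrays made double-stranded by primer extension. Fluorescent anti-GST marked bound protein, and scans were normalised with masliner.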
row,Sequence,PBM E-score
1,ATGTTGGA,0.253
2,ATGTCTAC,0.0545
3,AAAAAACT,-0.00503
4,GATACATC,0.188
5,AGGTATGG,-0.327
6,CCTACTCG,0.0723
7,CATAAACC,-0.056
8,AGGGGAAC,-0.129
9,ACTTTAGC,-0.136
10,AAGATGCC,-0.0425
11,CTCCAAAG,-0.148
12,GTTAAAAC,0.254
13,TTCTAAAA,0.0137
14,CGCGTTAC,0.138
15,GACCTAGA,-0.187
16,CATAACGG,0.0242
17,GCGTGCAC,-0.175
18,CGTCCTAA,-0.0434

row,Sequence,PBM E-score
1,TACTCTGA,0.0284
2,ATAATGCC,-0.0507
3,CATTTCCC,0.0713
4,CGCTAGCA,-0.149
5,AATCACGT,0.103
6,AACAACTG,0.103
7,GGAAATGA,0.0941
8,GATAAGGA,0.103
9,AACACTAA,0.128
10,AGAGCACG,-0.119
11,CCATCTAA,-0.0463
12,GGAATCAC,-0.159
13,GCACGAAC,0.22
14,TGGCTGAA,-0.0832
15,AGGCCGAG,-0.163
16,CAGATCGA,-0.213
17,ATGTCGGG,0.124
18,CAAAACAA,0.152
